This passage reports binding signal results from article PMC9911399, “Two distinct binding modes provide the RNA-binding protein RbFox with extraordinary sequence specificity”.

T1: RBFOX1 RRM (Homo sapiens, UniProt Q9NWB1 109-208)
T1 sequence: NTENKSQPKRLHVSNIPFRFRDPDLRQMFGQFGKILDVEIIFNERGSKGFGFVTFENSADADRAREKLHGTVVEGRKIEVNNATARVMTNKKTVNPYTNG

B1: CCCGGGU (DNA:RNA)
RNA: GGGAGACCGGAAUUCAGAUUGUCCCCCGGGUUUAAAUCCCGUCGUAGCCACCA
DNA 1: CAATCTGAATTCCGGTCTCCC
DNA 2: TGGTGGCTACGACGGGATT
B2: ACUGUAA (DNA:RNA)
RNA: B1 RNA with C25A, C27U, G29U, G30A, U31A
DNA 1: CAATCTGAATTCCGGTCTCCC
DNA 2: TGGTGGCTACGACGGGATT
B3: GUAGCUC (DNA:RNA)
RNA: B1 RNA with C25G, C26U, C27A, G29C, G30U, U31C
DNA 1: CAATCTGAATTCCGGTCTCCC
DNA 2: TGGTGGCTACGACGGGATT
B4: GUAAACC (DNA:RNA)
RNA: GGGAGACCGGAAUUCAGAUUGUCCGUAAACCUUAAAUCCCGUCGUAGCCACCA
DNA 1: CAATCTGAATTCCGGTCTCCC
DNA 2: TGGTGGCTACGACGGGATT
B5: CUUCAAC (DNA:RNA)
RNA: B4 RNA with G25C, A27U, A28C, C30A
DNA 1: CAATCTGAATTCCGGTCTCCC
DNA 2: TGGTGGCTACGACGGGATT
B6: GCUGCAC (DNA:RNA)
RNA: B1 RNA with C25G, C27U, G29C, G30A, U31C
DNA 1: CAATCTGAATTCCGGTCTCCC
DNA 2: TGGTGGCTACGACGGGATT
B7: UCAAGUU (DNA:RNA)
RNA: B1 RNA with C25U, C27A, G28A, G30U
DNA 1: CAATCTGAATTCCGGTCTCCC
DNA 2: TGGTGGCTACGACGGGATT
B8: CUAGGCU (DNA:RNA)
RNA: B1 RNA with C26U, C27A, G30C
DNA 1: CAATCTGAATTCCGGTCTCCC
DNA 2: TGGTGGCTACGACGGGATT
B9: CUUGGGC (DNA:RNA)
RNA: B1 RNA with C26U, C27U, U31C
DNA 1: CAATCTGAATTCCGGTCTCCC
DNA 2: TGGTGGCTACGACGGGATT

Changes are numbered by the printed parent chain; changes in the protein carry UniProt numbers. The list shows a part of the results.

The target of the experiment is T1, RBFOX1 RRM. The experiment is described as follows: EMSA; HiTS-Eq, 1 nM pool, 10 min; buffer printed only for the single-RNA assays: 10 mM Tris pH 7.5, 150 mM NaCl, 3.4 mM EDTA, 0.001% NP-40, 30 C. The note with it: tags: His6 N-terminal (pET28a); label: 5' 32P. A digest of the protocol:
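Purified wild-type or mutant RbFox RRM at increasing concentrations was equilibrated with 1 nM of 5′-radiolabelled RNA carrying 7 randomized nucleotides for 10 min in 50 µL. Unbound RNA was separated by 8% native PAGE and sequenced. Relative association constants came from read-count changes of each RNA species compared with the control reaction, normalised to the cognate motif.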
In general terms: A gel shift assay detects complexes by their altered migration in electrophoresis.
On to B1, for which the binding signal was 0.00573 KA relative to UGCAUGU.

Take B2: the binding signal is 0.00133 KA relative to UGCAUGU.

In the case of B3, the binding signal was 0.0123 KA relative to UGCAUGU.

In the case of B4, the binding signal is 0.00277 KA relative to UGCAUGU.

With B5, the binding signal was 0.00234 KA relative to UGCAUGU.

With B6, the binding signal was 0.0251 KA relative to UGCAUGU.

B7: the binding signal was 0.00624 KA relative to UGCAUGU.

Turning to B8, the binding signal was 0.0118 KA relative to UGCAUGU.

Turning to B9, the binding signal is 0.00507 KA relative to UGCAUGU.
